# Measurements: PubChem BioAssay AID504332 (National Center for Advancing Translational Sciences (NCATS), 2011)
# The campaign covered roughly 350,000 compounds. About 31,000 (8.9%) were called active. Inconclusive means that the source gave no clear call. Such entries were picked first, then a sample of the others. Calls come from the whole dose curve; as a rule, active = well fitted inhibition curve with a large enough effect; inconclusive = small, poorly fitted or top-dose-only effect; inactive = no such curve, though single readings can be large or run the other way. Where the call is inconclusive, the potency comes from a doubtful curve fit.
# Biological target: Histone-lysine N-methyltransferase EHMT2 (Homo sapiens) (UniProt Q96KQ7)
# Assay: qHTS Assay for Inhibitors of Histone Lysine Methyltransferase G9a; note: nearly all actives have a fitted effect of over 75% in size
# Conditions: G9a H3K9 monomethylation, AlphaScreen, 2 h; series mostly up to 59 µM
# How it was run: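 Signal arises when biotinylated H3K9 peptide, once monomethylated, bridges streptavidin donor and antibody-captured acceptor beads. Enzyme at 20 nM was preincubated 15 min with test compounds; peptide 500 nM and SAM 20 uM then reacted for 2 h.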
# Potency is the fitted concentration of half-maximal effect; tags give direction and shape of the fitted curve.
# UniProt Q96KQ7, sequence (Q96KQ7 whole entry, looked up): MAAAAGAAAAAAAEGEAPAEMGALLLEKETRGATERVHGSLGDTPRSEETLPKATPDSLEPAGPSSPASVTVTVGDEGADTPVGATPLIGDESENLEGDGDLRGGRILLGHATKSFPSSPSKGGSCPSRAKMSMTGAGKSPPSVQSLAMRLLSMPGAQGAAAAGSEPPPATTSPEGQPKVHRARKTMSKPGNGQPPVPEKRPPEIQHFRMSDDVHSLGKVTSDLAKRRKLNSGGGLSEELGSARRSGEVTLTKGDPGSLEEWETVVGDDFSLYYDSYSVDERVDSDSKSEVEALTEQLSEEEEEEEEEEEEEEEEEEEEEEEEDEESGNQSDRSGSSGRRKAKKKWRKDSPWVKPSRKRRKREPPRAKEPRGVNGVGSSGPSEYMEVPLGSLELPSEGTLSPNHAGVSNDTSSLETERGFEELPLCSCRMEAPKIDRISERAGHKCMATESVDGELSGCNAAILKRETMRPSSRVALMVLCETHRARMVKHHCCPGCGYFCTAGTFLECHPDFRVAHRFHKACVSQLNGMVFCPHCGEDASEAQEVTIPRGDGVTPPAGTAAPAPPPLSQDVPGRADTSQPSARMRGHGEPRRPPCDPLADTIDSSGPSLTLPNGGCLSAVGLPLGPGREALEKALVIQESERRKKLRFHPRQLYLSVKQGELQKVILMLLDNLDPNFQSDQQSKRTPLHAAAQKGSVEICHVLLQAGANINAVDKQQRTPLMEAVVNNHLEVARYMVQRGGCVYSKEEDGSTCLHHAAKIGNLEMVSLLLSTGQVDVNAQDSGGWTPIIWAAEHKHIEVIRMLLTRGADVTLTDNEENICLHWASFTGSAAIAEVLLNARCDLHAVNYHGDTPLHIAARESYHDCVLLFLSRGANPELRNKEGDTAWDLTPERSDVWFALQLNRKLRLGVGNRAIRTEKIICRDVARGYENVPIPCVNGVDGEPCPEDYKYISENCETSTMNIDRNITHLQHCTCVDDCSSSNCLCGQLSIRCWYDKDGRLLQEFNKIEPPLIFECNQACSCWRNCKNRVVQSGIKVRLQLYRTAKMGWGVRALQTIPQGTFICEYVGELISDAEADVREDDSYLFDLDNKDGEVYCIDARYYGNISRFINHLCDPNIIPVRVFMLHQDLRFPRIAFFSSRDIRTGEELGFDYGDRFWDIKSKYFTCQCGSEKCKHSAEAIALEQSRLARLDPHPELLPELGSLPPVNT
row,SMILES,Potency
1,COc1ccc(-c2nn(-c3ccccc3)cc2/C=C\C(=O)Nc2ccc(C(=O)O)cc2)cc1,"inconclusive: 31.6 µM [inhibitor, full curve, poor fit]"
2,CC(C)(C)c1ccc(OCCC(=O)Nc2cccc(S(=O)(=O)N3CCCC3)c2)cc1,active: 3.55 µM
3,COc1ccc(OCCCC(=O)Nc2ccc(N3CCCCC3)cc2)cc1,"inconclusive: 28.2 µM [inhibitor, single point]"
4,O=C1C=CC(=O)C(C2=C3C(=O)N(CCc4ccccc4)CC(=O)N3CCC2)=C1,active: 1.26 µM
5,CC1(OC(=O)C2CCCC2)C(=O)C=C2C=C(c3ccsc3)N(CCc3ccccn3)C=C2C1=O (centres undefined),inactive
6,COC(=O)c1c(NC(=O)c2ccccc2)sc(C(=O)c2ccccc2)c1C,inactive
7,COCCNC(=O)CCn1c(=O)[nH]c2cc(OC)c(OC)cc2c1=O,inactive
8,COc1cccc(-n2c(=S)[nH]c3c(oc4ccccc43)c2=O)c1,active: 44.7 µM
9,COc1ccccc1NC(=O)c1ccc(N2CC3CC(C2)c2cccc(=O)n2C3)c(NC(=O)c2cccnc2)c1 (centres undefined),active: 15.8 µM
10,COc1cccc(N2CCN(S(=O)(=O)c3ccc4c(c3)NC(=O)CS4)CC2)c1,"inconclusive: 22.4 µM [inhibitor, full curve, poor fit]"
11,O=C(Cc1cccs1)Nc1ccc(S(=O)(=O)N2CCCC2)cc1,"inconclusive: 70.8 µM [inhibitor, partial curve]"
12,CC(=O)Nc1sc2c(c1C(c1cccc(F)c1)N1CCN(CCO)CC1)CCCC2 (centres undefined),"inconclusive: 79.4 µM [inhibitor, single point]"
13,Cc1cccc(NC(=S)N/N=C/c2cccn2Cc2ccc(F)cc2)c1,"inconclusive: 20 µM [inhibitor, full curve, poor fit]"
14,COc1cc(/C=C2/NC(=O)NC2=O)cc(Br)c1OCc1cccc(C(=O)O)c1,"inconclusive: 79.4 µM [inhibitor, partial curve, poor fit]"
15,Cc1cc(C(C)(C)C)cc(S(=O)(=O)Nc2cccc(C(=O)O)c2)c1C,inactive
16,Cc1ccc(C=Nc2ccc(N(C)C)cc2)o1,active: 1.26 µM
17,CN(CC(=O)Nc1ccccc1F)CC(=O)Nc1ccccc1Br,"inconclusive: 17.8 µM [inhibitor, partial curve, poor fit]"
18,CCOc1ccc(NC(=O)c2cc(S(=O)(=O)N3CCC(C)CC3)cn2C)cc1,inactive
19,CN1C(=O)N(CC(=O)Nc2ccc(C(F)(F)F)cc2)C(=O)C12CCCCC2,"inconclusive: 89.1 µM [inhibitor, single point]"
